# Measured values reported in article PMC4336329 (PLoS ONE, 2015).
# Hit rate of the full screen: of about 310,000 compounds, about 2,200 (0.71%) showed an effect of 50% or more. The effect is printed as a negative number. The list shows a part of the results.
# Molecular target: human ether-à-go-go-related gene (hERG) potassium channel (human, UniProt Q12809)
# Test: primary screen, population patch clamp on CHO cells stably expressing hERG
# human ether-à-go-go-related gene (hERG) potassium channel, sequence (Q12809 whole entry, looked up): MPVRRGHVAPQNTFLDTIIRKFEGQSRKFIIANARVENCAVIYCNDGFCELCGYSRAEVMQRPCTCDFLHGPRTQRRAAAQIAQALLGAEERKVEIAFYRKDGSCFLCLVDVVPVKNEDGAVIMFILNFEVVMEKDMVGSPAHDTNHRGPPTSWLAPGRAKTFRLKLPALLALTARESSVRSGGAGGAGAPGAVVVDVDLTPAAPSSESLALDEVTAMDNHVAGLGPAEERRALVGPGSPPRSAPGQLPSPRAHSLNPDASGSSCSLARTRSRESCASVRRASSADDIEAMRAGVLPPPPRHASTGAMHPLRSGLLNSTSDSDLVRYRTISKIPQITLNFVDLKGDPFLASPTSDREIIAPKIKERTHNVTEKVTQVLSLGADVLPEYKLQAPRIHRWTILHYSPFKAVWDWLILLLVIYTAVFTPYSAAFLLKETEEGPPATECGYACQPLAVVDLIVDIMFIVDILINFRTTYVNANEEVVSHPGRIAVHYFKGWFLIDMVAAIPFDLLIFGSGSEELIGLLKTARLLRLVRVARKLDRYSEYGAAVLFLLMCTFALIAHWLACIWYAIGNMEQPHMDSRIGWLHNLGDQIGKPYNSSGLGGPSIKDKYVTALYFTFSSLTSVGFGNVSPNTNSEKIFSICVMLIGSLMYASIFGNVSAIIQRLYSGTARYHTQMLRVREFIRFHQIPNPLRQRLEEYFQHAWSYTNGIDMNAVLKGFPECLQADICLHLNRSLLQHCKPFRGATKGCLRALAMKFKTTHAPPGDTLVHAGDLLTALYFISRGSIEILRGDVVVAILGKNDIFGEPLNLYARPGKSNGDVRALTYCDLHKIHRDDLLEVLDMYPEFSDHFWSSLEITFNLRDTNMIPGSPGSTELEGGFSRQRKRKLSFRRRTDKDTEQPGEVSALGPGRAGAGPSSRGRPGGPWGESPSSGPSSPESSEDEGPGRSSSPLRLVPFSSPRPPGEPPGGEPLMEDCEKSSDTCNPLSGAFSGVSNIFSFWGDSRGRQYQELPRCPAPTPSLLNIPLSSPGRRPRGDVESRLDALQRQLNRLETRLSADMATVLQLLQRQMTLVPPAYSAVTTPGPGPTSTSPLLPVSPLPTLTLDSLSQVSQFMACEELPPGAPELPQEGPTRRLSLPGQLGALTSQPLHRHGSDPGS
row,SMILES,"hERG current change (%, negative = inhibition) at 1uM [%]"
1,CCc1ccc(OCC(=O)NC(C)C)cc1,8.07
2,COc1cccc(-c2ccc(SCC(=O)NC3CCCC3)nn2)c1,9
3,COc1cc(=O)[nH]c(SCc2c(F)c(F)c(F)c(F)c2F)n1,4.74
4,Cc1ccc(C(=O)O)cc1[N+](=O)[O-],13.3
5,Cc1cccc(Nc2nnc(SCC(=O)Nc3ccccc3[N+](=O)[O-])s2)c1,17.9
6,CC(C)C(OC(=O)c1cccs1)C(=O)NCc1ccc(F)cc1 (stereo not drawn),17
7,CC(Oc1ccc(F)cc1)C(=O)Nc1cc(S(=O)(=O)N2CCCCC2)ccc1N1CCOCC1 (stereo not drawn),14.1
8,Nc1cc(S(=O)(=O)N2CCCCC2)ccc1N1CCOCC1,8.17
9,CCCCOC(=O)CSC(=S)N(C)Cc1cccs1,11.5
10,CCn1cc(CN2CCCC(C(=O)Nc3cccc(-c4cc5ccccc5[nH]4)c3)C2)cn1 (stereo not drawn),11.4
11,COc1ccc(N2CCN(C(=O)c3cccnc3SCc3cccc(Br)c3)CC2)cc1,4.84
12,O=[N+]([O-])c1ccccc1S(=O)(=O)NCCc1ccncc1,21.6
13,Cc1ccc(S(=O)(=O)n2nc(-c3ccc(Cl)cc3)nc2NCc2ccco2)cc1,-0.4
14,O=[N+]([O-])c1ccc(Nc2ccc(Cl)cc2)nc1,5.04
15,O=c1cc(CSc2ccccn2)nc(N2CCN(c3ccccc3)CC2)[nH]1,-18.8
16,O=C(COC(=O)CNC(=O)c1ccccc1F)Nc1ccc2[nH]c(=O)[nH]c2c1,14.6
17,CCc1c(C(=O)NN2C(=O)C3C4CCC(O4)C3C2=O)csc1C (stereo not drawn),15.4
18,COc1ccc(-c2csc(NC(=O)CSc3ccc(Br)cc3)n2)c(OC)c1,19.2
19,CCCOc1ccccc1C1CC(=O)Nc2cc3c(cc21)OCCO3 (stereo not drawn),11

row,SMILES,"hERG current change (%, negative = inhibition) at 1uM [%]"
1,CCn1c(Cc2ccc(OC)cc2)nnc1SCc1nc2ccccc2c(=O)[nH]1,10.3
2,COc1ccc(CC(=O)OCC(=O)N2CCN(S(=O)(=O)c3ccc(C)cc3C)CC2)cc1,5.83
3,Cc1cc2nc(NCCCO)n(CC(=O)c3cc(C(C)(C)C)c(O)c(C(C)(C)C)c3)c2cc1C,7.22
4,O=C(O)c1ccc(Nc2nc(-c3cccnc3)cs2)cc1O,6.41
5,COc1ccccc1-[n+]1c(C)cc(/C=C2\Sc3ccccc3N2C)cc1C.[I-],-39.3
6,CCCCC(CCC(=O)O)(C(=O)OCC)c1csc(Nc2ccc(C)cc2)n1 (stereo not drawn),8.18
7,CCN(C(C)=O)c1cccc2ccccc12,7.75
8,COc1cc(CNc2ccc3[nH]c(=O)[nH]c3c2)ccc1OCc1ccccc1C,12.8
9,CCOC(=O)C1CCN(c2ccc([N+](=O)[O-])c(C(C)=O)c2)CC1,6.2
10,COc1nc(-c2ccccc2)c2c(c1C#N)CC(C)(C)OC2,18.3
11,O=C(CSc1nc(O)cc(=O)n1-c1ccccc1)Nc1ccc(Br)cn1,5.75
12,CC(C)(C)Cc1nnc(NC(=O)Cc2ccc([N+](=O)[O-])cc2)s1,-0.543
13,CC1=C(C(=O)OC(C)C)C(C)C(C(=O)OC(C)C)=C(C)N1,-9.49
14,COc1ccc(C2CCCN2C(=S)Nc2cccc(Cl)c2)cc1OC (stereo not drawn),3.97
15,O=C(CN1CCN(Cc2ccccc2)CC1)NCc1ccc(Cl)cc1,-13.4
16,Cc1cccc(OCCCC(=O)NCc2ccco2)c1,8.14
17,COc1ccc(C2C(=O)N(C3CCCCCC3)CC(=O)N2Cc2ccccc2)cc1OC (stereo not drawn),10.6
18,CC(C)CC(OC(=O)c1cccs1)C(=O)NCc1ccco1 (stereo not drawn),21.8
19,COc1ccc2nc(NC(=O)c3cccc(N4C(=O)CCC4=O)c3)sc2c1,2.6

row,SMILES,"hERG current change (%, negative = inhibition) at 1uM [%]"
1,Cc1nc2nc(C)c(CCC(=O)NC3CCCCC3)c(C)n2n1,9.07
2,CC(C)CN1C(Nc2ccccc2)=NC[C@@H]1C,14
3,CN1COc2ccc3ccccc3c2C1,12.4
4,O=C(NCc1ccccc1)C1Nc2ccc(OC(F)(F)F)cc2C2C=CCC12 (stereo not drawn),6.53
5,COC(=O)N1CCCc2cc(C)ccc21,9.69
6,COc1ccc(S(=O)(=O)NCc2ccccn2)cc1NC(=O)c1ccc(C)cc1,6.98
7,O=C(CCC(=O)N1CCSc2ccccc21)NCc1ccc(Cl)cc1,5.74
8,COc1ccc2c(c1OC)CN1CCc3cc4c(cc3[C@@H]1[C@@H]2O)OCO4,11.2
9,CCOC(=O)Cn1c(S(=O)(=O)Cc2cccc(F)c2)nc(-c2ccccc2)c1-c1ccccc1,1.88
10,Cc1cc(C)nc(SCc2nnc(SCC(=O)Nc3nccs3)n2Cc2ccco2)n1,-4.17
11,Oc1ccc(Br)cc1C=Nc1ccc2c3c(cccc13)CC2,14.1
12,COc1ccc(NC(=O)c2cc(S(=O)(=O)N3CCc4ccccc43)cn2C)cc1OC,10.6
13,COc1ccc(NC(=O)CCC(=O)c2ccc(Cl)cc2)cn1,0.313
14,COCc1ccc(CN2CCC(N3CCC(C(=O)N4CCCC4)CC3)CC2)o1,10.6
15,NS(=O)(=O)c1ccc(NC(=O)c2c(Cl)cccc2Cl)cc1,3.56
16,COc1ccc(Cl)cc1NC(=S)N(Cc1ccccc1C)CC1CCC(C(=O)O)CC1 (stereo not drawn),22
17,Nc1nnc(CCC2CCCCC2)s1,14.9
18,O=C(NCCSc1ccc(Cl)cc1)c1ccc(CN2CCOCC2)cc1,-12.2
19,COc1cc(S(=O)(=O)N(Cc2ccccc2)CC2CCCO2)ccc1-n1cnnn1 (stereo not drawn),8.58
